To fix the notation:
B1: CPEB3 Ribozyme (parent)
chain: UAACAGGGGGCCACAGCAGAAGCGUUCACGUCGCAGCCCCUGUCAGAUUCUGGUGAAUCUGCGAAUUCUGCUGUAUAUCUC

Read counts are not given, so values of variants with three or more changes are uncertain.

Variants of B1 are the subject of this series. In words: self-cleavage, relative activity (ratio to wild type); higher = more cleavage; in vitro, sequencing. The method in brief: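 Relative activity compares each variant's cleaved/total read fraction with that of the unmutated ribozyme. To get these fractions, barcoded CPEB3 ribozyme libraries from rounds of error-prone PCR were transcribed with T7 RNA polymerase for 5 hours at 37°C and then given 15 min of DNase I treatment before EDTA was added. The RNAs were reverse transcribed with template switching and sequenced on Illumina, and DNA sequencing linked barcodes to variants. A minimum of 5 reads applied, and three batches were averaged.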
Regarding UAGCAGGGGGCCACAGCAGGAGCGUUCACGUCGCGGCCCCUGUCUGACUCUGGUGAACCUGCGAAUUCUGCUGUAUAUCAC [A3G A20G A35G A45U U48C U58C U80A], the self-cleavage was determined as 0.25. For UAGCAGGGGGCCACAGCAGGAGCGUUCACCUCGCAGCCCCUGUCAGAUUCUGUUGAAUCUGCGAAUUCUGCUGAUUAUCUC [A3G A20G G30C G53U U74A A75U] the value was 0.09; for UAGCAGGGGGCCACAGCAGUAGCGUUCACGUCGCAGCGCCUGUCAGAUUCUGGUGAAUCUGCGAAUUCUGCUGUAUAUCUC [A3G A20U C38G], 0.08; for UAGCAGGGGGCCACAGCAGUAGCGUUCACGCCGCAACCCCUGACAGAUUCAGGUGAAUCUGCGAUUUCUGCUGUAUAUCUC [A3G A20U U31C G36A U43A U51A A65U], 0.18. The same measure for UAGCAGGGGGCCACAGCAGAGGCGUUCACGUCGCGGCCCCUGUCAGAUUCUGGGGAAUCUGCGAGUCCUGCUGUAUAUCUC [A3G A21G A35G U54G A65G U67C]: 0.32; for UAGCAGGGGGCCACAGCAGGAGCGUUCACGUCGCAGCCCCUGUCAGAUUCUGGUGAAUCUGCGAAUUCUGCCGUAUACCUC [A3G A20G U72C U78C]: 0.92; for UAGCAGGGGGCCACAGCAGUAGCGUUCACGCCGCAGCCCCUGUCAGAUUCUGGUGUAUCUGCGAACUCUGCUGUAUAUCUC [A3G A20U U31C A56U U66C]: 0.12. For UAGCAGGGGGCCACAGCAGUAGCGUUCACGUCGCAGCCCCUGUCAGAUUCUGGUGAAUCUGCGAAUUCUGCCGUAUAUCUC [A3G A20U U72C] the value was 0.39; for UAGCAGGGGGCCACAGCAGGAGCGUUCACGUCGCAGCCACUGUCAGAUUCUGGUGAAUCUGCGAAUUCUGCUGUAUAUCUC [A3G A20G C39A], 0.1; for UAGCAGGGGGCCACAGCAGGAGCGUUCUCGUCGCGGCCCCUGUCUGAUUCCGGUGAAUCUGCGAAUCCUGCUGUAUAUCUC [A3G A20G A28U A35G A45U U51C U67C], 0.6.

Consider UAGCAGGGGGCCACAGCAGAUGCGUUCACGUCGCAGCCACUGUCAGAUUCUGGUGAAUCUGCGCGUACCGCUGUAUAUCUC [A3G A21U C39A A64C A65G U67A U69C], for which the self-cleavage stood at 0.05. Consider UAGCAGGGGGCCACAGCAGGAGCGUUCACGUCGCAGCCCCUGUCAGAUUCUGGAGAAUCUGCGAAGUCUGCUGUAUAUCUC [A3G A20G U54A U66G], for which the self-cleavage worked out at 0.13. As to UAGCAGGGGGCCACAGCAGAGGCGUUCGCGUCGCGGCCCCUGUCAGAUUCUGGUGAAUCUGUGAAUUCUGCUGUAUAUCUC [A3G A21G A28G A35G C62U], the self-cleavage came to 0.17. For UAGCAGGGGGCCACAGCAGAGGCGUUCACGCCACAGCCCCUGUCUGAUUCGUGUGAAUCUGCGAAUUCUGCUGUAUAUCUC [A3G A21G U31C G33A A45U U51G G52U] the value was 0.07; for UAGCAGGGGGCCACAGCAGAGCCGUCCUCGUCGGAGCCCCUGUCAGAUUCUGGUGAAUCUGCGAAUUCUGCUGUAUAUCUC [A3G A21G G22C U26C A28U C34G], 0.11; for UAGCAGGGGGCCACAGCAGGAGCGUUCUCGUCGCAGCCCCUGUCAGAUUCUGGUGAAUCUGCGAAUUCUGCUGUUUAACUC [A3G A20G A28U A75U U78A], 0.74. The same measure for UAGCAGGGGGCCACAGCAGAGGCGUUCACGCCGCAGCCCCUGUCAGAUUCUGGUGAAUCUGCGGAUUCUGCUGUAUAUCCC [A3G A21G U31C A64G U80C]: 0.15; for UAGCAGGGGGCCACAGCAGAGGCGUUCACGUCGCAGCCCCUGUCAGAUUCUGGAGAAUCUGCGAAUUCUGCUGUAUAUCAC [A3G A21G U54A U80A]: 0.83. Turning to UAGCAGGGGGCCACAGCAGAGGCGUUCACGUCGCAGCCCCUGUCAGAUCCUGGUGAAUCUGCGAAUUCUGCUGUAUAUCUC [A3G A21G U49C], the self-cleavage worked out at 0.4. The same measure for UAGCAGGGGGCCACAGCAGAGGCGUUCACGUCGCAGCCCCUGUCAGAUCCUGGUGAAUCUGCGAAUCCUGCUGUAUAUCUC [A3G A21G U49C U67C]: 0.36. For UAGCAGGGGGCCACAGCAGGAGCGUUCACGUCGCAGCCCUUGUCAGAUUCUGGUGAAUCUGCGAAUUCUGCAGUAUAUCCC [A3G A20G C40U U72A U80C] the value was 1.01.

For the variant UAGCAGGGGGCCACAGCAGGAGCGUUCACGUCGCAGCCCCUGUCGGAUUCUGGUGAACCCGCCAAUCCUGCUGUAUAUCUC [A3G A20G A45G U58C U60C G63C U67C], the self-cleavage came out at 0.47.

On to UAGCAGGGGGCCACAGCAGAGGCGUUCACGUCGCAGCCCCUGUCUGAUUCUGGCGAAUCUGCGAAUUCUGCUGUAUAUCUC [A3G A21G A45U U54C], for which the self-cleavage stood at 0.08. The same measure for UAGCAGGGGGCCACAGCAGUAGCGUUCACGUCGCGGCCCCUGUCAGAUUCUGGUGAAUCUGCGAAUUCUGCUGUAUAUCUC [A3G A20U A35G]: 0.88; for UAGCAGGGGGCCACAGCAGGAGCGUUCACGGCGCAGCCCCUGUCAGAUUCUGGUGAAUCUGCGAAUUCUGCUGUAUAUCUC [A3G A20G U31G]: 0.85; for UAGCAGGGGGCCACAGCAGAGGCGUUCACGUCGCUGCCCCUGUCAGAUUCUGGUGAAUCAGCGAAUUCUGCCGUAUAUCUC [A3G A21G A35U U60A U72C]: 0.47.

On to UAGCAGGGGGCCACAGCAGUAGCGUUCACGUCGCAGCUCCUGUCAGAUUCUGGUGAAUCUGCGAAUUCUGCUGUAUAUCCC [A3G A20U C38U U80C], for which the self-cleavage turned out to be 0.18.

Turning to UAGCAGGGGGCCACAGCAGAUGCGUUCACGUCGCAGCCCCUGUCAGAUUCUGGUGAAUCUGCGAAUUCUGCUGUUUAUCUC [A3G A21U A75U], the self-cleavage worked out at 0.44. Consider UAGCAGGGGGCCACAGCAGGAGCGUUCACUCCGCAGCCCCUGUCAGAUUCUAGUGAAUCUGCGGAUUCUGCUGUAUAUCUC [A3G A20G G30U U31C G52A A64G], for which the self-cleavage is 0.18. The same measure for UAGCAGGGGGCCACAGCAGGGGCGUUCACGUCGCAGCCCCUGUCAGAUUCUGGUGAAUCUGCGAAUUCUGCUGUAUAUCUC [A3G A20G A21G]: 0.69. Consider UAGCAGGGGGCCACAGCAGGAGCGUUCACGCUGCAGUCCCUGUCAGAUUCUGGUGAAACCGCGAAUUCUGCUGUAUAUCUC [A3G A20G U31C C32U C37U U58A U60C], for which the self-cleavage stood at 0.1. UAGCAGGGGGCCACAGCAGAAGCGUUCCCGACGCAGCCCCUGUCAGAUUCUAGUGAAUCUGCGAAUUCUGCUGUAUAUCUC [A3G A28C U31A G52A]: the self-cleavage worked out at 0.41. The same measure for UAGCAGGGGGCCACAGCUGAAGCGUUCACGUCGCAGCCCCUGUCAGAUUCUGGUGAAUCUGCGAAUUCUGCUGUAUAUCCC [A3G A18U U80C]: 0.78. The same measure for UAGCAGGGGGCCACAGCAGAGGCGUUCACGUCGCAGCCCCUGUCAGAUUCUGGUGAAUCUGCGAAGUCUGCUGUAUAACCC [A3G A21G U66G U78A U80C]: 0.3.

The record behind these values is the RNAGym collection of RNA variant scans (doi:10.1093/nar/gkz1192).
